For 83 variants, self-cleavage results are on record in the RNAGym collection of RNA variant scans (doi:10.1093/nar/gkz1192).

Sequences and labels used below:
B1: CPEB3 Ribozyme (parent)
chain: UAACAGGGGGCCACAGCAGAAGCGUUCACGUCGCAGCCCCUGUCAGAUUCUGGUGAAUCUGCGAAUUCUGCUGUAUAUCUC

The source gives no read counts; variants with many changes may rest on few reads.

Variants of B1 are the subject of this series. Briefly: self-cleavage, relative activity (ratio to wild type); higher = more cleavage; in vitro, sequencing. The essentials:
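For each CPEB3 ribozyme variant, relative activity is its cleaved/total read fraction divided by the unmutated ribozyme's. Barcoded error-prone PCR libraries were transcribed by T7 RNA polymerase (5 hours, 37°C) and held in DNase I for 15 min before an EDTA stop, with cleavage occurring throughout. Template-switching reverse transcription and Illumina sequencing were used to read the RNAs. A 5-read minimum applied, and results are the mean of three batches.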
In the case of U31A C34G U49A U51A, the self-cleavage stood at 0.07.
For U31A U51C U78A, the self-cleavage stood at 0.53.
The result for G30A G46U U51A reads 0.14; that for C29U U51C G52A, 0.57.
With G30C A47G U74C, the self-cleavage is 0.15.
The result for G30A A47U U49C U51C U58C U69A reads 0.08; that for G30U U41C U58C U69C U78C, 0.29; that for G30A U41C U78A, 0.11.
Turning to G30U A35G U60A U67A, the self-cleavage was found to be 0.07.
As for U31A U54A C79U, the self-cleavage is 0.55.
Consider G30U U51G A65G U66C, for which the self-cleavage stood at 0.07.
The result for G30A A35U A47G U58C U76A A77G reads 0.07.
Regarding G30A U31C G36U, the self-cleavage stood at 0.17.
For G30A A35G U67A U69G, the self-cleavage amounted to 0.14.
The result for U31A U43A A47G U51C U58G U60C reads 0.12; that for U31A C38G C68U C71U, 0.07.
Consider G30C G53A A64U, for which the self-cleavage was 0.1.
Consider U31A U66A U67C, for which the self-cleavage was determined as 0.28.
For G30A U41C U43A A75U, the self-cleavage was 0.11.
For U31A A56G C59A, the self-cleavage is 0.38.
For U31A U41C C68A, the self-cleavage was determined as 0.19.
The result for U31A A45U C50A U67C U72C reads 0.07.
The result for G30A U41C A45C A47G reads 0.08.
In the case of G30U U41C U48C, the self-cleavage came out at 0.36.
On to U31A G52A U72C, for which the self-cleavage was determined as 0.54.
C29U U41A U74A A75U: the self-cleavage was determined as 0.24.
The result for U31A A45G A64G reads 0.23; that for G30A A45U A56G A57G, 0.
The result for G30C U60C U74C reads 0.2.
The result for G30U A45G U69C reads 0.07; that for G30C U58C A65G U78C, 0.03; that for G30A U48A U51A U78C, 0.13.
In the case of G30A U43C A57G U66C, the self-cleavage came to 0.11.
Turning to G30C A57G C62U, the self-cleavage is 0.04.
U31A U51C U80A: the self-cleavage turned out to be 0.61.
U31A A45G U78G: the self-cleavage turned out to be 0.32.
The result for U31A A75G U78C reads 0.27; that for G30A C32A G55A U67G, 0.17.
The result for C29U U58C U60A U69C U78A reads 0.09; that for U31A U58C A64G, 0.16; that for U31A G52U U78C, 0.18.
The result for U31A A45G U58A U72C U74A A75G reads 0.2; that for G30A A64G U67C U74C, 0.07; that for G30C U41C G61A, 0.12.
Regarding G30A U31C C37A C39A C62G, the self-cleavage amounted to 0.04.
The result for G30U U41A U58C reads 0.07; that for U31A G61U U80C, 0.37.
In the case of G30U U41C A56G A77G U80G, the self-cleavage stood at 0.09.
As for U31A G55A A75C, the self-cleavage worked out at 0.5.
Consider G30A U60C U69G, for which the self-cleavage was determined as 0.07.
As for G30A U60C U69C, the self-cleavage amounted to 0.07.
U31A G46U U54C U58A: the self-cleavage was found to be 0.14.
As to G30A A56G A57G, the self-cleavage was 0.12.
As for G30U U41C U80A, the self-cleavage came out at 0.07.
The result for C29U U43A U72C U80C reads 0.94; that for U31A U41C G73A, 0.83.
The result for U31A A35U A45G A65U U66A U72C reads 0.07; that for U31A U49A G55A A57G, 0.47.
The result for G30U G53C A64U reads 0.18; that for U31A G33A C59U, 0.12.
On to G30A A64U A65U, for which the self-cleavage was 0.07.
Consider U31A C34U A35G G42A U51C U58A, for which the self-cleavage came out at 0.04.
Turning to U31A U51A A57G, the self-cleavage came out at 0.54.
Take G30A A35G U41A U51A: the self-cleavage came out at 0.16.
The result for G30A C38U G52A C62U U76A reads 0.07; that for G30C U31C U54A A57G A77G, 0.09.
As for G30A A47G C59U U74A, the self-cleavage was determined as 0.2.
Take U31A A45U A57G U80C: the self-cleavage amounted to 0.1.
With U31A G52A U54C, the self-cleavage stood at 0.66.
The result for G30U A45G C68A U72C A75G U80C reads 0.14.
On to U31A A45U U54C G61U C62U A77C, for which the self-cleavage came to 0.08.
The result for U31A U49C A64C U78C reads 0.05.
The result for G30A G52U A64G U76C reads 0.21; that for U31A U49G A64G U80A, 0.39.
For the variant U31A A35G G42A U48C U51C U74A, the self-cleavage is 0.16.
The result for G30U C40U U43C U60A U66C reads 0.38; that for C29U U51C A64G, 0.31; that for U31A C34U U41C U72A, 0.14.
The result for C29U U54C A75U reads 0.64; that for U31A A35G U49C, 0.43; that for C29U U43C U80A, 0.41.
The result for U31A G36A U76A reads 0.35; that for G30C A45G U54A U58C, 0.1.
